Source: PubChem BioAssay AID1745853 (National Center for Advancing Translational Sciences (NCATS), 2022)
Some of the results follow. Shown are side measurements of this screen, not its main read-out; they come without a call.

Key:
Assay in all cases: Primary Screen for Target Class Profiling of Small Molecule Inhibitors of Methyltransferases
[1] = target: Glycine N-methyltransferase (Homo sapiens) (UniProt Q14749); details: purified enzyme, MTase-Glo SAH luminescence; measured here: GNMT inhibition; at 40 µM; stronger effect = lower value
In short: (§1)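 Each enzyme was reacted with SAM and its substrate, with compounds tested once at 40 uM; SAH formed was read by MTase-Glo luminescence.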

[2] = target: Guanidinoacetate N-methyltransferase (Homo sapiens) (UniProt Q14353); details: purified enzyme, MTase-Glo SAH luminescence; measured here: GAMT inhibition; at 40 µM; stronger effect = lower value
In short: as §1

[3] = target: Histamine N-methyltransferase (Homo sapiens) (UniProt P50135); details: purified enzyme, MTase-Glo SAH luminescence; measured here: HNMT inhibition; at 40 µM; stronger effect = lower value
In short: as §1

[4] = target: Nicotinamide N-methyltransferase (Homo sapiens) (UniProt P40261); details: purified enzyme, MTase-Glo SAH luminescence; measured here: NNMT inhibition; at 40 µM; stronger effect = lower value
In short: as §1

[5] = target: Phenylethanolamine N-methyltransferase (Homo sapiens) (UniProt P11086); details: purified enzyme, MTase-Glo SAH luminescence; measured here: PNMT inhibition; at 40 µM; stronger effect = lower value
In short: as §1
% is scaled to controls: 0 for no effect and ±100 for the full control effect.

Structure (SMILES)	activity change, negative = inhibition [1]	activity change, negative = inhibition [2]	activity change, negative = inhibition [3]	activity change, negative = inhibition [4]	activity change, negative = inhibition [5]
COc1ccc(CN2C(=O)c3cc4ccccc4n3CC2(C)C(=O)NCc2ccccc2)c(OC)c1 (stereo not drawn)	-1.87%	-0.345%	1.88%	-7.32%	-2.1%
CCCC1c2ccc(C)n2CCN1C(=O)Nc1ccc(F)c(Cl)c1 (stereo not drawn)	3.53%	0%	-4.03%	8.21%	-1.06%
Nc1nccn2c(C3CCC(C(=O)O)CC3)nc(-c3cc4cccc(Cl)c4[nH]3)c12 (stereo not drawn)	-48.4%	-9.11%	-38.4%	-21.8%	-25%
Cc1ccccc1N1C(=O)c2cc3occc3n2CC1(C)C(=O)NC1CCCC(C)C1C (stereo not drawn)	-5.55%	-6.08%	5.28%	-8.68%	-4.85%
CCCCNC(=O)C(CC)n1ccc2cc(S(=O)(=O)N3CCCCC3)ccc21 (stereo not drawn)	4.25%	0.779%	-1.36%	6.81%	2.02%
CC1CC(C)CN(S(=O)(=O)c2ccc3c(c2)oc(=O)n3CC(=O)Nc2cccc(F)c2)C1 (stereo not drawn)	-12.4%	-5.25%	7.18%	-3.61%	-38.5%
COc1ccc(C(=O)N2CC[C@@H](CC(=O)O)[C@@H](CCN3CCC[C@H]3C(N)=O)C2)cc1	-1.47%	-0.889%	1.05%	-2.11%	-3.54%
Cc1ccc(C)c(C(=O)Cn2nc3n(CCCOC(C)C)c(=O)c4ccccc4n3c2=O)c1	2.56%	6.14%	5.16%	-8.01%	1.26%
Cc1nc(CN2CCN(c3nccc(-c4cccnc4)n3)CC2)cs1	-9.09%	-7.57%	-5.41%	-13.5%	-8.23%
O=C(NCc1ccc(F)cc1)[C@@H]1C[C@@H](c2cccc(C(F)(F)F)c2)N(CC2CCOCC2)C1	0.079%	2.18%	3.6%	-4.23%	-3.29%
COc1ccc2cc3n(c2c1)CC(C)(C(=O)NC1CCCCC1)N(Cc1ccco1)C3=O (stereo not drawn)	-9.02%	4.69%	1.41%	-5.59%	-0.088%
Cc1cc(C)c2nc(-c3ccccn3)cc(C(=O)Nc3ccc(S(=O)(=O)Nc4onc(C)c4C)cc3)c2c1	-21.1%	2.09%	-0.769%	-44.7%	-13.7%
CCC(c1cccs1)N1C(=O)[C@H]2CN(S(=O)(=O)c3ccccc3F)C[C@H]2C1=O (stereo partly drawn)	-7.82%	-9.33%	-5.23%	-8.76%	-9.49%
CC(=O)Nc1c2n(c3ccccc13)CC(C)(C(=O)NC1CCCC1)N(Cc1cccs1)C2=O (stereo not drawn)	-11%	2.11%	-4.67%	-2.87%	1.65%
O=S(=O)(c1ccccc1)c1nnn2c1nc(Nc1cccc(F)c1)c1ccccc12	-2.84%	0%	6.71%	-6.56%	-1.8%
O=C1NCCN1C1CCN(Cc2cccnc2)CC1	-3.06%	-4.41%	2.6%	-6.38%	0.842%
O=C(c1ccccn1)N1CCCC2(CNc3ccccc3[S+](=O)([O-])N2)C1 (stereo not drawn)	-4.79%	-7.28%	-5.37%	-14.1%	-11.9%
CCOC(=O)c1cc2n(n1)CC(C)(C(=O)NCCC(C)C)N(c1ccccc1OC)C2=O (stereo not drawn)	-0.325%	2.57%	7%	4.89%	0.517%
COCc1nc2nc(-c3ccccc3)c(-c3ccc(O)c(F)c3)cc2n1C	-66.7%	-51.2%	-72.4%	-70.5%	-31.4%

Structure (SMILES)	activity change, negative = inhibition [1]	activity change, negative = inhibition [2]	activity change, negative = inhibition [3]	activity change, negative = inhibition [4]	activity change, negative = inhibition [5]
CCOc1cc(CC(=O)N[C@@H](CC(C)C)c2ccccc2N2CCCCC2)ccc1C(=O)O	–	-10.1%	–	-31.3%	-3.66%
CCc1ccccc1N1C(=O)c2c(C(=O)OC)ncn2CC1(C)C(=O)NC1CCCC1 (stereo not drawn)	-1.15%	-3.65%	-8.07%	-0.804%	-4.34%
O=C(c1ccc2c(c1)[nH]c(=O)n2C1CCC(O)CC1)N1CCOCC(O)C1 (stereo not drawn)	-3.5%	-9.3%	-3.4%	-13.4%	9.99%
CNC(=O)c1noc(CNC(=O)C(c2cccc(F)c2)N(C)C)n1 (stereo not drawn)	-4.15%	0.953%	0.502%	-1.34%	-0.625%
CC(=O)N1CCCCN(C(=O)c2cc(-c3ccccc3C(F)(F)F)nc3c2cnn3C)C1	-2.44%	-4.86%	-1.36%	-8.33%	-1.47%
OC1(CN2CCCCC2)CCN(Cc2cnn(-c3ccccc3Cl)c2)C1 (stereo not drawn)	-4.76%	-6.25%	-19.5%	-2.74%	0%
Cc1ccc(C(C(=O)O)N2CCC(C(=O)N3CCCC3)CC2)c(C)c1 (stereo not drawn)	-4.92%	-5.6%	-1.6%	-9.06%	-7.68%
Cc1ccc(C(=O)N2CCN(c3ccc([N+](=O)[O-])cc3)CC2)cc1Cl	-2.52%	-0.689%	-1.57%	-18.1%	-5.27%
COc1ncccc1CNC[C@H]1O[C@@H]2C[C@@H](CC(=O)N3CCOCC3)O[C@@H]2[C@@H]1O	-2.16%	-3.84%	0.58%	-1.75%	-1.32%
CCC(C)NC(=O)c1ccc2c(=O)n(C)c3nnc(SCc4cccc(Cl)c4)n3c2c1 (stereo not drawn)	10%	1.47%	9.36%	11.5%	8.67%
CC1c2cccn2CCN1C(=O)Nc1ccc(Br)cc1F (stereo not drawn)	-0.623%	0%	6.81%	-9.95%	5.1%
Cc1ccc(N2C(=O)CSc3c(c4ccccc4n3C)C2C(=O)NCCCOC(C)C)cc1Cl (stereo not drawn)	-4.4%	5.1%	1.65%	-2.98%	0.232%
CC(C)OCCCn1c(=O)c2ccccc2n2c(CCC(=O)NCCC3=CCCCC3)nnc12	-9.79%	-0.232%	-10.4%	-0.78%	-13.7%
CCC(C)NC(=O)c1ccc2c(=O)n(C(C)C)c3nn(CC(=O)c4ccc(Cl)cc4)c(=O)n3c2c1 (stereo not drawn)	6%	0.199%	4.46%	7.86%	6.35%
Cn1ccnc1CNC[C@H]1Cn2cc(-c3ccccc3)nc2CO1	-2.51%	0.04%	-2.24%	0.867%	-0.887%
CCC(C(=O)NCc1ccc(C)cc1)n1ccc2cc(S(=O)(=O)N3CCCCC3)ccc21 (stereo not drawn)	2.29%	0%	6.01%	2.25%	3.84%
CC(C)S(=O)(=O)N(C)Cc1cccc(N2CCN(C(=O)c3c(Cl)cccc3Cl)CC2)c1F	-6.39%	-4.47%	-1.06%	-15.7%	1.41%
CCc1ccc(Cc2ccc3c(c2)[C@]2(OC3)O[C@H](CO)[C@@H](O)[C@H](O)[C@H]2O)cc1	6.58%	2.71%	14.1%	-2.64%	8.12%
CC1(CCOC2OC(CO)C(O)C(O)C2O)CCC23OC2(C1)C(O)CC1C(C)(C(=O)O)CCCC13C (stereo not drawn)	4.94%	1.01%	5.42%	-10.4%	3.95%
